In PubChem BioAssay AID2528 (National Center for Advancing Translational Sciences (NCATS), 2010):
Out of some 350,000 compounds screened, about 700 (0.2%) were called active. Inconclusive means that the source gave no clear call. Such entries were picked first, then a sample of the others. The call rests on the fitted dose curve; in most records, active means well fitted inhibition curve with a large enough effect; inconclusive means small, poorly fitted or top-dose-only effect; inactive means flat fitted curve, though single readings scatter. No potency is given beside an inconclusive call; the fits are too rough.
Further: nearly all actives have a fitted effect of over 35% in size.
Potency means the concentration at half of the fitted maximal effect; tags describe the fitted curve by direction and shape.
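Wherever activity change, negative = inhibition is given: plate controls were vehicle for no effect and no enzyme for full effect.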

What follows are molecules tested against RecQ-like DNA helicase BLM (Homo sapiens) (UniProt P54132) (assay: qHTS Assay for Inhibitors of Bloom's syndrome helicase (BLM)). Conditions: recombinant BLM DNA unwinding, fluorescence dequenching; series mostly up to 56.1 µM; activity change, negative = inhibition: at the top concentration.
Sequence of UniProt P54132 (P54132 whole entry, looked up): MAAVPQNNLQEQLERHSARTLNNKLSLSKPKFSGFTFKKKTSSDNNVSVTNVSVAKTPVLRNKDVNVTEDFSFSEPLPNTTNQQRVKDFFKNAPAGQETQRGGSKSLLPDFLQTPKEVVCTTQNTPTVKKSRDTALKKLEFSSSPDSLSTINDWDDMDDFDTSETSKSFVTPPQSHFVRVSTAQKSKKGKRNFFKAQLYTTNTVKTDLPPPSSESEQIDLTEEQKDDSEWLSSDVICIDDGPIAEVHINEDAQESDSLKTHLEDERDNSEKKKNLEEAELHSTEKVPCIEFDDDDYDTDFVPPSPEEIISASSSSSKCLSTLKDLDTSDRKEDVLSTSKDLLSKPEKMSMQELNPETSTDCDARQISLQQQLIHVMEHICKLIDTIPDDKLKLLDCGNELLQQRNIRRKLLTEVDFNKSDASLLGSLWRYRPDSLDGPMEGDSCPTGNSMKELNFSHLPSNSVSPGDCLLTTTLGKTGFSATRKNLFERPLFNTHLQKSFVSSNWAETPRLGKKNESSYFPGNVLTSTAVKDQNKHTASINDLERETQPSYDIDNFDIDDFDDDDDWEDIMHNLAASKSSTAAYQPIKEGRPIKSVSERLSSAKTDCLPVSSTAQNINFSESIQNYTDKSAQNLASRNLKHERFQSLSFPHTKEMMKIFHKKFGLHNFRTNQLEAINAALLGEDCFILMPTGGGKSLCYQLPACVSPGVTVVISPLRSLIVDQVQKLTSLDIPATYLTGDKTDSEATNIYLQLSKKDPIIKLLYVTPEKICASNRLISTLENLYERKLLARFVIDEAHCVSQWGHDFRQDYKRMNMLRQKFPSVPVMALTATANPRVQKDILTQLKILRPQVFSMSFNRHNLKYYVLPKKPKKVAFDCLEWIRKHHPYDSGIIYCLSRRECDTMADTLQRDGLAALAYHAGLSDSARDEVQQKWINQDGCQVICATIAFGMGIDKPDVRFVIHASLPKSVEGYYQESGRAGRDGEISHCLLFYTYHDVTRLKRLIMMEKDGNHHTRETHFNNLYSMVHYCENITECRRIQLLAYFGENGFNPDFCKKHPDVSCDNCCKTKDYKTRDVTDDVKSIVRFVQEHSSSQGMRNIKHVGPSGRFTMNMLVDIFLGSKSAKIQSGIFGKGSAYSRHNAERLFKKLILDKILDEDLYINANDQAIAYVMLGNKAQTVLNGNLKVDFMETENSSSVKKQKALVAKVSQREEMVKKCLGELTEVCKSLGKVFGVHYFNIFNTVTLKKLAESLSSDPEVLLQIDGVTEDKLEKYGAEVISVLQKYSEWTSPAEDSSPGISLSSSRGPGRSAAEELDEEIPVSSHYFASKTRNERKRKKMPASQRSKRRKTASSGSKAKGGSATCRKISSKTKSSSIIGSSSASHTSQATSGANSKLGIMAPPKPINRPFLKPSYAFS
`CCN(c1ccc(OC)cc1)S(=O)(=O)c1nnc(NC(=O)c2ccccc2C)s1` was tested, and the “activity change, negative = inhibition” value was inactive: -4.68%. `CC(C)(C)c1ccc(/C([O-])=C(/C(=S)NCc2ccco2)[n+]2ccccc2)cc1` was tested, and the Potency was inconclusive [inhibitor, partial curve]. For `O=C1Nc2ccccc2C1Cc1ccc(Br)cc1` (centres undefined), the “activity change, negative = inhibition” value was inactive: -2.26%. `COc1cc(C2C3=C(Nc4nc(N)[nH]c(=O)c42)c2ccccc2C3=O)ccc1O` (centres undefined) was tested, and the Potency was inconclusive [inhibitor, single point]. For `Cc1c(C(=O)Nc2cccc(C#N)c2)sc2nc3n(c(=O)c12)CCCCC3`, the “activity change, negative = inhibition” value was inactive: -0.886%. With `Cc1ccc(CNC(=O)c2c[nH]n3c(=O)c(Cc4ccc(F)cc4Cl)c(C)nc23)cc1` the Potency was inconclusive [inhibitor, single point]. For `O=C(Nc1nc(-c2ccco2)c(-c2ccco2)s1)C1CC(=O)N(c2ccc3c(c2)OCCO3)C1` (centres undefined), the Potency was active: 14.1 µM. For `Cc1ccc(/C=C2\SC(=S)N(/N=C/c3cc([N+](=O)[O-])ccc3O)C2=O)o1`, the Potency was inconclusive [inhibitor, single point]. For `O=C(N/N=C/c1ccc(-c2ccccc2[N+](=O)[O-])o1)[C@H]1C[C@@H]1c1ccccc1`, the Potency was inconclusive [inhibitor, partial curve]. In the case of `O=C(c1ccco1)N(Cc1ccccc1)Cc1ccccn1`, the “activity change, negative = inhibition” value is reported as inactive: 4.3%. `COc1ncc2nc(-c3ccccc3)c(=O)n(-c3ccccc3)c2n1` was tested, and the “activity change, negative = inhibition” value was inactive: 1.7%. With `CCc1ccc(S(=O)(=O)/N=C2/C=C(Sc3ncn[nH]3)C(=O)c3ccccc32)cc1` the Potency was active: 22.4 µM. With `CCCCCCCC/C=C\CCCCCCCC(=O)O` the Potency was inconclusive [inhibitor, single point]. In the case of `CCc1cc(=O)oc2cc3occ(-c4ccc(OC)c(F)c4)c3cc12`, the Potency is reported as inconclusive [inhibitor, partial curve]. With `COc1ccccc1Nc1c2c(nc3ccc(NC(=O)/C=C/c4cc(OC)c(OC)c(OC)c4)cc13)CCCC2` the Potency was inconclusive [inhibitor, single point]. `O=C(NCCN1C(=O)S/C(=C\c2cccs2)C1=O)c1ccco1` was tested, and the “activity change, negative = inhibition” value was inactive: -1.23%. With `CCN1/C(=C/c2ccc3cc(C)cc(C)c3[n+]2CC)Sc2cc(C)ccc21` the Potency was inconclusive [inhibitor, single point]. With `Cc1ccc(C)c(Nc2nc3c(S(=O)(=O)c4ccc(Br)cc4)nnn3c3ccsc23)c1` the Potency was inconclusive [inhibitor, single point]. In the case of `O=C(NCc1ccco1)c1c2c(nc3ccccc13)CCC2`, the Potency is reported as active: 17.8 µM.
